# Test results taken from the supplement of paper PMC11417369.
# The list shows a part of the results.
# Test system: PF3D7_0420300 AP2 domain 1 (GST-tagged)
# Experiment: gcPBM binding intensity (ln(normalized median fluorescence intensity)); higher = stronger DNA binding
# Method in brief: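 Alexa488 anti-GST antibody, scanned at 488 nm, detected GST-tagged P. falciparum DNA-binding domains that had been expressed in E. coli and incubated for 1 h on an Agilent 4 × 180k array. The array carried primer-extended double-stranded 36-bp intergenic genomic probes and negative controls. Binding intensity is the highest Masliner-normalised natural-log median intensity across replicate spots of either orientation of each probe.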
row,Sequence,gcPBM binding intensity (ln)
1,TTATTATCCTATATTTCTTTTCCTTCTTCAAAATTA [CACACA_negctrl_site1314],9.24
2,TAATATCATTTATATTGTACTATAACAAAATCTATA [XGTACX_site7700],9.01
3,TATGTCAATTTTCATACATGCGCATAATCTTTATTT [TGCATGCA_site807],9.41
4,ATAAATAAGATACGTACACACATATACAAAATATAC [CACACA_site3661],9.95
5,TTTCCATTATGATATAGTACATAAATATATGTAATA [XGTACX_site6992],9.02
6,TTGTGTGTATGTATACATATATATATTGAGACGAAT [TGCATGCA_negctrl_site382],9.64
7,AAAAAAAATATATAAACACACATATTTATATACTCA [CACACA_site4984],9.43
8,ACATATAATAAAAAATGTACACACATAAGAAAATTT [XGTACX_site6153],9.81
9,ACTATAAATATATAAATATATATATATATATATATA [GTGCAC_negctrl_site65],8.92
10,ACTCTTAAAATGTATTGTACATAATTTTTACAAGGG [XGTACX_site6611],9.02
11,AGGTAGTTCTGTATCACACACATATATATATATATA [CACACA_site2214],9.71
12,TTTTTTTTTTTTACCTGTACATGTCAGCAAACTTTT [XGTACX_site1171],9.15
13,GGAGAATAGTGGAAAACACACACGTTTGAGATATGG [CACACA_site1168],9.47
14,CAAAAACGGAAGTGGTGTACCGATATTATATAAACA [XGTACX_site4962],9.51
15,AACATTATAAGACACACACACACATATATATATATA [CACACA_site8259],10.1
16,ATTATTAAAAAGATGTAAATAAATGAATATATGCTT [CACACA_negctrl_site539],9.27
17,ATATAGTATAATAAAAGTACATTTTGATTTTTTCTC [XGTACX_site1797],9.11
18,TATTAAGAATTTACATGTACTTGTTAAATAAGAAAA [XGTACX_site4466],9
19,TTCTATATATTTTAATGTACATATATGATTATTCTT [XGTACX_site8294],9.36
20,GTCGCATTTTATACAAGTACACATGAATTATACAAC [XGTACX_site2200],9.5
21,TAAATAATATCTATCACACACGCATATATACATATA [CACACA_site2622],9.49
22,ATTTATAATCAGGGTTGTACACTTATAGAATTTTTA [XGTACX_site4175],9.16

row,Sequence,gcPBM binding intensity (ln)
1,CATAAGAAAATAAAAACATGCACATAAGAAATATAC [TGCATGCA_site842],10
2,AATCTTCATACCAACACATGCACAAAAGAAATAAAA [TGCATGCA_site563],9.47
3,ATATAAATATATGGAAGTACACAAAAAAATTAAAAA [XGTACX_site8624],9.54
4,TATATTTATACATATTGTACATTTTATACTTTTACA [XGTACX_site3884],9.33
5,CTTATGTGCATACCTACACACTTACAGATATATATA [CACACA_site5622],9.46
6,TTCAAATATTTTATTTGTACATAAAAAAGAAAGTTA [XGTACX_site8287],8.64
7,TAGGAAGAATTACTGTGTACTAAAATATTAAAAAGT [XGTACX_site4909],9.38
8,ATAAATGAAAAAAAGCGTACATATAAAAAAATATAT [XGTACX_site5063],9.6
9,ACTTACCCATTTATTACACACATAAAGGAAAATTTT [CACACA_site4873],9.7
10,TGTAAATAATATAATAGTACGCATATTTTTATTGAA [XGTACX_site284],9.14
11,TGTTTATGTATCAATTGTACAAAAAAAAAAAAAAAA [XGTACX_site1590],8.75
12,TTCAAAAAAATGTATACACACATAAGTATAATATAA [CACACA_site3758],9.41
13,GATTTTTTTTTTTTTTCACACACTAATAATATTATC [CACACA_site464],9.65
14,AGTGTAGGTATATAAACACACATACAGATATATAAT [CACACA_site4900],9.62
15,GTATGTATGTATGTATGTACTTATGTAGTCTTAGTT [XGTACX_site1710],9.3
16,TAAAAAATAAAATGGACACACACGTTCAAATTTAGA [CACACA_site2083],9.71
17,TATTCAGGTCCAATGGTGCAATATATTTTTGTAATA [GTGCAC_site9607],9.26
18,ATATATATATATATATGTACACATATATGTGTTTGT [XGTACX_site62],9.35
19,TTAATAAACCTTAGATGTACAGTTATATATAAAATA [XGTACX_site6681],9.14
20,TGAACTCACGAGCACACACACACATATATATATATA [CACACA_site8248],9.94
21,ATATATATTTTTTAATGTACTTATATTTTTATAATA [XGTACX_site2103],9.2
22,ATACAATAAAGGTGTACACATATATGATGCAAGATG [CACACA_site5897],9.65
